Laboratory results: the supplement of paper PMC7826260
The list shows a part of the results. Viral Rep nickase domains cut single-stranded DNA in vitro (3 µM enzyme, 1 h, 37 °C); shown is the middle of each 90-letter strand. Numbers give uncut DNA relative to the enzyme-free pool, as log2; uncut sequences lie near 0, cut ones below; no hit call is given. Reads are scaled to the total; uncut strands gain when others are lost, and binding without cutting may add a little.

Experiments:
Assay in all cases: uncleaved DNA left, log2 of reads against the no-enzyme library (log2 ratio); higher = less cleavage (more negative = more Rep cleavage of the k-mer); sequences stand for … in CTCGTCCG…ACCGGAGA
[1] = tested on: T1, Rep nickase domain of Muscovy duck circovirus
T1 sequence (Rep 1-111, printed without the tag): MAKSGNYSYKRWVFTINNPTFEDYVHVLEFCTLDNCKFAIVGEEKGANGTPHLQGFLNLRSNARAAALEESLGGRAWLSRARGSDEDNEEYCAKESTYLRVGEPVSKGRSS
Protocol: (§1)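 A pool of 90-nt single-stranded DNAs with seven random bases just before the constant AC of the nick site (name = the seven bases) was cut by 3 µM recombinant His6-SUMO-tagged Rep nickase domain (300 nM DNA, 50 mM HEPES pH 8.0, 50 mM NaCl, 1 mM MnCl2, 1 h, 37 °C, three replicates). Uncut DNA was amplified and sequenced.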

[2] = tested on: T2, Rep nickase domain of banana bunchy top virus
T2 sequence (Rep 1-94, printed without the tag): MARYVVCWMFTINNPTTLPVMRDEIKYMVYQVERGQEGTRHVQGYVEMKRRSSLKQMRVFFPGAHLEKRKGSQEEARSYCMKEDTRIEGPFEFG
Protocol: as §1

[3] = tested on: T3, Rep nickase domain of cabbage leaf curl virus
T3 sequence (Rep 1-116, printed without the tag): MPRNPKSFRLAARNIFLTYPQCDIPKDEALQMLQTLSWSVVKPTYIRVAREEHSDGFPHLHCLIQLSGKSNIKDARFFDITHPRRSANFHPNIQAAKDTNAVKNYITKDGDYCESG
Protocol: as §1

[4] = tested on: T4, Rep nickase domain of chickpea chlorotic dwarf virus
T4 sequence (Rep 1-124, printed without the tag): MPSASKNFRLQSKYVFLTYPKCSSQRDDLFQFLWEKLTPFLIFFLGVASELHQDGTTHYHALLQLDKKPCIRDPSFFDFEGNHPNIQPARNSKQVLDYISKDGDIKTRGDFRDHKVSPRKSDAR
Protocol: as §1

[5] = tested on: T5, Rep nickase domain of faba bean necrotic yellows virus
T5 sequence (Rep 1-98, printed without the tag): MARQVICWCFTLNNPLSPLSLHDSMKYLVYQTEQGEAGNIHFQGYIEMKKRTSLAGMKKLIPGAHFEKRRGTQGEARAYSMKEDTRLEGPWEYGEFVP
Protocol: as §1

[6] = tested on: T6, Rep nickase domain of maize striate mosaic virus
T6 sequence (Rep 1-117, printed without the tag): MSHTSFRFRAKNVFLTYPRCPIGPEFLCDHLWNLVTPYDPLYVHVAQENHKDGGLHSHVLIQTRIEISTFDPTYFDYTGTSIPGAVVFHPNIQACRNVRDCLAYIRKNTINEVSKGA
Protocol: as §1

[7] = tested on: T7, Rep nickase domain of porcine circovirus 2
T7 sequence (Rep 2-116, printed without the tag): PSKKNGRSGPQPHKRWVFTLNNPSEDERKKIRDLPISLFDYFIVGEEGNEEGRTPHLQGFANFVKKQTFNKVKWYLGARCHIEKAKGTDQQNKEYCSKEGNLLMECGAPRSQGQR
Protocol: as §1

[8] = tested on: T8, Rep nickase domain of tomato golden mosaic virus
T8 sequence (Rep 1-124, printed without the tag): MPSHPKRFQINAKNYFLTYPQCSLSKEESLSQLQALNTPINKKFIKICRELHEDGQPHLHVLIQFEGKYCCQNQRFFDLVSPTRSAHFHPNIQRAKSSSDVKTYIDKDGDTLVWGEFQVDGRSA
Protocol: as §1

[9] = tested on: T9, Rep nickase domain of tomato yellow leaf curl virus
T9 sequence (Rep 1-136, printed without the tag): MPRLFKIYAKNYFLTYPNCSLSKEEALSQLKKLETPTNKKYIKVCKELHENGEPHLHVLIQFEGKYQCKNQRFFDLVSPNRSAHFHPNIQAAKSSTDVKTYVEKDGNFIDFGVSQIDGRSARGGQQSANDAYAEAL
Protocol: as §1

[10] = tested on: T10, Rep nickase domain of wheat dwarf virus
T10 sequence (Rep 1-137, printed without the tag): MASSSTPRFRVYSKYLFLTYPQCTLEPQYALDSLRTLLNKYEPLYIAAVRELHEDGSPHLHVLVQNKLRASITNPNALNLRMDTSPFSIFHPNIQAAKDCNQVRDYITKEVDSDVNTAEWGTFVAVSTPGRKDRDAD
Protocol: as §1

Sequence	uncleaved DNA left (log2) [1]	uncleaved DNA left (log2) [2]	uncleaved DNA left (log2) [3]	uncleaved DNA left (log2) [4]	uncleaved DNA left (log2) [5]	uncleaved DNA left (log2) [6]	uncleaved DNA left (log2) [7]	uncleaved DNA left (log2) [8]	uncleaved DNA left (log2) [9]	uncleaved DNA left (log2) [10]
TCCGGCC	-0.0149	0.0853	0.302	0.25	-0.00531	0.0661	0.0473	-0.00928	-0.08	-0.0276
CGCACTT	-0.0414	-0.0328	0.0497	0.0362	-0.164	1.26	-0.0817	-0.193	0.0458	0.115
GCCGCCT	-0.065	-0.062	0.0339	-0.523	0.0405	0.0189	0.0698	-0.0968	-0.0354	-0.122
TGGCCTT	0.0321	0.00178	0.409	0.0975	0.01	1.1	-0.165	-0.192	0.153	0.194
CTTCTCT	0.0335	0.0407	-0.154	-1.9	-0.0333	-0.67	-0.112	0.00774	0.0107	0.0954
CTAATCT	-0.0472	0.119	0.221	-2.07	-0.0299	-0.728	-0.0151	-0.07	0.0709	0.0545
ATTGAAC	0.0339	0.0049	0.056	0.369	0.141	0.219	0.0625	0.0642	-0.0337	0.039
GTCCCGC	0.0345	0.134	0.324	0.734	0.083	1.24	0.0817	0.0945	0.111	0.0875
GTGGTAT	0.116	0.16	0.496	1.26	-0.0792	2.11	0.0543	0.0806	0.115	0.1
CTGGTTC	0.022	0.0803	0.19	-0.452	-0.0537	0.0534	0.156	-0.05	-0.0598	-0.0172
AATGATG	0.104	-0.088	0.0829	0.923	0.0454	0.824	0.138	0.0705	-0.17	0.0528
GATCCAA	0.104	0.174	0.32	0.598	0.152	0.6	0.102	0.106	0.184	0.204
GAATTCA	-0.141	0.0535	-0.191	-0.826	-0.0625	0.501	-0.596	0.00139	0.0611	-0.0494
AACGGCC	0.057	0.103	-0.0231	0.205	0.0249	-0.386	-0.00233	0.0495	0.103	0.077
TAGGGAG	0.22	0.0986	0.0721	0.408	0.0553	-0.101	0.276	0.0775	0.0113	0.00982
TATATAA	0.0783	0.0355	-0.0281	-0.333	0.0519	-0.4	0.0785	0.125	0.123	0.0904
GCATGTC	0.115	0.113	0.101	0.296	0.142	-0.302	0.0854	0.0413	0.0802	0.0212
AACCGAA	0.163	0.0212	-0.0321	-0.339	0.0146	-0.618	0.00583	-0.0393	0.0754	0.116
AGTGAGC	-0.00735	0.00757	-0.0848	0.169	-0.0474	-0.125	0.107	0.108	-0.0158	0.0495
GGGCCCC	-0.108	-0.0168	0.678	1.51	-0.0438	2.03	0.149	0.0713	-0.0778	0.0676
CAGTAGC	-0.0209	-0.068	-0.632	-0.705	0.00508	-1.29	-0.607	-0.0412	-0.00625	-0.137
TACGTCG	-0.00643	0.00464	-0.823	-0.464	0.0423	-1.16	0.0735	-0.0289	-0.0583	-0.106
TATCCCC	-0.215	-0.114	0.0645	-0.394	-0.1	0.0306	-1.56	-0.23	-0.0536	-0.0109
AAACACC	-0.0765	-0.0157	-0.0968	-1.06	0.0419	-0.576	-0.168	-0.0034	-0.0563	-0.0585
CATCGGG	-0.00168	0.0449	-0.426	-0.37	-0.148	-1.12	0.123	-0.0585	-0.0188	-0.169
GCATCGG	0.0597	0.0833	0.598	1.43	0.106	1.67	0.188	0.213	-0.0013	0.137
CGACTAC	0.169	-0.028	0.0375	0.382	0.166	1	0.115	-0.0648	0.0303	0.176
CCTGTCC	0.0462	0.0316	0.0663	-0.131	0.0605	-0.147	0.0359	0.0211	-0.0977	-0.0807
TCTTATA	-0.00517	0.0777	-0.0614	-1.58	0.0916	-0.256	-0.229	0.0448	-0.0377	0.0281
